Assay results published in PubChem BioAssay AID463173 (ICCB-Longwood Screening Facility, Harvard Medical School, 2010).
The campaign covered roughly 52,000 compounds. About 1,700 (3.3%) were called active. Cut-off read from the data, not from the text of the source: active = survival mostly below about 52% (no sharp cut-off); inactive = mostly above about 56%. This is one part of the list.

System: Wild type
Assay: growth inhibition of S. aureus wild type versus tarO mutant, primary screen, teichoic acid synthesis inhibitors, RN4220, OD600 (AID 463173)
Conditions: S. aureus RN4220 wild type/DeltatarO growth, OD600, 18 h, hits give low values, screened at 18.75 µg/mL (by protocol)

Compound | survival
Cc1cc2nn(-c3ccc(F)cc3)nc2cc1NC(=O)c1cccc2c(Cl)cccc12 | inactive: 71%
C#CCn1c(O)c(N=NC(=O)c2ccccc2-n2cccc2)c2ccccc21 | inactive: 108%
CCOC(=O)c1ccc2c(c1)N(Cc1ccc(F)cc1Cl)C(=O)c1ccccc1S2(=O)=O | inactive: 138%
CCn1c(C)c(C)c2cc(C(=O)NCc3ccc(F)cc3)ccc21 | inactive: 73%
Cc1ccc2[nH]c(=O)c(CN(Cc3ccccc3)C(=O)c3ccco3)cc2c1 | inactive: 106%
COc1ccc(-n2cc(-c3ccccc3)c3c(Nc4ccc(OC)c(OC)c4)ncnc32)cc1 | inactive: 143%
Cc1cccc(C)c1NCc1nnc(SCC#N)n1-c1ccccc1 | inactive: 108%
COc1cc(OC)c(NC(=O)Nc2cccc(OCc3cc(=O)n4ccccc4n3)c2)cc1Cl | inactive: 87%
CCC(=O)N1CCc2cc(Br)cc(S(=O)(=O)N3CCN(c4ccccc4OC)CC3)c21 | inactive: 72%
CCOC(=O)CC(=O)CSc1nc2ccsc2c(=O)n1Cc1ccccc1 | inactive: 133%
Cc1noc(-c2ccc(NC(C)c3ccccc3)c([N+](=O)[O-])c2)n1 (configuration not stated) | inactive: 87%
Cc1ccc(CNC(=O)c2nc(SCc3ccccc3C)ncc2Cl)cc1 | inactive: 91%
CC1(c2ccccc2)CC(C)(C)N(C(=O)c2cccc(Cl)c2)c2ccccc21 (configuration not stated) | active: 6%
COc1ccccc1NC(=O)c1ccc(CN2C(=O)C(C)=C(c3ccc(C)c(C)c3)S2(=O)=O)cc1 | inactive: 84%
Cc1cccc(N2C(=O)NC(=O)/C(=C\c3cn(CC(=O)NCc4ccco4)c4ccccc34)C2=O)c1 | inactive: 117%
c1ccc2c(c1)COC(CCN1CCN(CCC3OCc4ccccc4CO3)CC1)OC2 | inactive: 94%
Cc1ccc(CNC(=O)c2ccc(CSCc3cccc(C)c3)o2)cc1 | inactive: 78%
Cc1ccc(CCNS(=O)(=O)c2c(C)nc3sc(C)c(C)n3c2=O)cc1 | inactive: 86%
COc1cccc(-c2nnc(-c3ccccc3NC(=O)c3ccc(F)cc3F)o2)c1 | inactive: 72%
Cc1ccc(C)c(OCCn2c(CCNC(=O)C3CCCCC3)nc3ccccc32)c1 | inactive: 104%
Cc1cc(C)cc(-n2c(SCC(=O)N3CCOCC3)nc3c([nH]c4ccccc43)c2=O)c1 | inactive: 133%
O=C1C(=O)N(C2CCN(C(=O)c3ccccc3Cl)CC2)CCN1Cc1ccc(F)cc1 | inactive: 60%

Compound | survival
CC1S/C(=N\NC(=O)CNc2cccc(Cl)c2)N(c2ccccc2)C1=O (configuration not stated) | inactive: 119%
Cc1ccc(NS(=O)(=O)c2ccc3[nH]c4c(c3c2)CCCC4)cc1N(C)C | inactive: 81%
Cc1nc2ccn(Cc3cccs3)c(=O)c2cc1C(=O)N1CCN(c2ccccc2F)CC1 | inactive: 65%
CC1CCN(S(=O)(=O)c2ccc3c(c2)N(CC(=O)NCCc2ccccc2)C(=O)CO3)CC1 | inactive: 94%
COc1cccc(NC(=O)c2ccc3c(c2)CCN3S(C)(=O)=O)c1 | inactive: 81%
COc1ccc(C2=CC(c3ccccc3Cl)n3nc(-c4ccc(Cl)cc4)nc3N2)cc1 (configuration not stated) | inactive: 81%
COc1ccccc1CNC(=O)CCS(=O)(=O)c1ccc2c(c1)CCN2C(C)=O | inactive: 65%
Cc1nc2nc(NCc3ccc(Cl)cc3)[nH]n2c(=O)c1Cc1ccccc1 | inactive: 61%
Cc1ccc(Cl)cc1N1CCN(C(=O)Cn2cnc3sc(C)c(S(=O)(=O)N4CCC(C)CC4)c3c2=O)CC1 | inactive: 81%
COC(=O)c1scc(-c2ccc(C)cc2)c1S(=O)(=O)N1CCN(c2ccc(C(C)=O)cc2)CC1 | inactive: 98%
CC1CCc2c(sc(NC(=O)C3c4ccccc4Oc4ccccc43)c2C#N)C1 (configuration not stated) | inactive: 80%
Cc1ccc(-n2c(=O)c3c(C)c(C)sc3n(CC(=O)NCc3ccccc3)c2=O)cc1C | inactive: 93%
CCCn1c(CCC(=O)Nc2ccc(OCC)cc2)nc2cccnc21 | inactive: 83%
COc1ccc2nc(SCC(=O)Nc3ccc(N4CCCC4)cc3)c(C#N)cc2c1 | inactive: 104%
CCOC(=O)c1c(C)oc2nc(C)nc(NCc3ccc(F)cc3)c12 | inactive: 69%
COc1ccc(C(=O)Nc2nnc(SCc3cc(=O)c4cc(C)cc(C)c4[nH]3)s2)cc1 | inactive: 78%
CCOc1ccc(CCNC(=O)CCCn2c(=O)c3cccn3c3ccccc32)cc1 | inactive: 67%
C=CCNC(=O)C1CC(=O)N(c2ccc(OCC(=O)Nc3ccc(F)c(Cl)c3)cc2)C1 (configuration not stated) | inactive: 111%
Cc1ccc(CNC(=O)CCCn2c(=O)c3ccccc3n(CC(=O)Nc3ccc(C)c(C)c3)c2=O)cc1 | inactive: 80%
Cc1ccc(Cl)cc1NC(=O)C(C)n1nc(-c2ccccc2)ccc1=O (configuration not stated) | inactive: 41%
COC(=O)NCC(c1cccnc1)N1CCN(c2ccc(F)cc2)CC1 (configuration not stated) | inactive: 83%
Cc1ccc(-n2ncc3c(NCCC4=CCCCC4)ncnc32)cc1 | active: -3%

Compound | survival
CC(C)OC(=O)CC12CN(C)CC(CC(=O)OC(C)C)(CN(C)C1)C2=O | inactive: 114%
Cn1c(=O)c2c(nc(SCC(=O)Nc3ccccc3F)n2Cc2ccc(Cl)cc2)n(C)c1=O | inactive: 88%
CCc1ccccc1NC(=O)CCNS(=O)(=O)c1ccc2c(c1)CCN2C(=O)C1CC1 | inactive: 73%
COc1ccccc1N1CCN(S(=O)(=O)c2c(C)sc3ncn(CC(=O)N(C)c4ccc(Cl)cc4)c(=O)c23)CC1 | inactive: 72%
CCNC(=O)c1c(NC(=O)Cc2coc3cc(C)cc(C)c23)sc2c1CCCC2 | inactive: 95%
O=C1CCCN1c1ccc(S(=O)(=O)N2CCCCC2)cc1 | inactive: 106%
Oc1c(C(c2ccccc2F)N2CCN(Cc3ccccc3)CC2)sc2nc(-c3ccco3)nn12 (configuration not stated) | inactive: 113%
Cc1c(C(=O)N2CCC(c3nc4ccccc4s3)CC2)oc2ccc(Cl)cc12 | inactive: 66%
Cc1ccc(-n2ncc3c(Nc4cccc(C)c4C)ncnc32)cc1 | inactive: 78%
CCOc1ccccc1N(C)C(=O)C1CCCN(c2ncnc3c2nc2n3CCCCC2)C1 (configuration not stated) | inactive: 72%
Cc1cc(C)c2c(=O)nc(SCc3ccccc3C)n(C3CC3)c2n1 | inactive: 97%
Cc1ccc(NC(=O)c2cc(-c3ccc(Br)s3)nc3ccccc23)cc1F | inactive: 86%
C=CCn1c(C)c(C=C(C#N)C#N)c2ccccc21 | inactive: 104%
Cc1ccc2c(CC(=O)Nc3ccc(S(=O)(=O)N4CCCCC4)cc3)coc2c1 | inactive: 68%
Cc1ccc(Cl)cc1NC(=O)Cn1c(=O)oc2cc(S(=O)(=O)N3CCCC3)ccc21 | inactive: 98%
CCC1=[N+](CC(=O)c2ccccc2)CCn2cccc21 | inactive: 80%
COc1ccc(C(=O)OC2=C(C(=O)c3ccccc3)N(C)S(=O)(=O)c3ccccc32)cc1OC | inactive: 132%
COCCn1c(=NC(=O)c2ccc3c(c2)OCCO3)sc2cc(C(=O)OC)ccc21 | inactive: 68%
COc1ccccc1N1CCN(CCCNC(=O)c2cnn(-c3cccc(Cl)c3)c2C2CCN(C(=O)OC(C)(C)C)CC2)CC1 | inactive: 85%
Cc1ccc(CN2C(=O)C3(c4ccccc42)N(c2cccc(F)c2)C(=O)CS3(=O)=O)cc1 (configuration not stated) | inactive: 71%
CCOc1ccc(CNC(=O)Cn2cc3c(n2)-c2c(oc(C(=O)N4CCOCC4)c2C)CC3)cc1 | inactive: 87%
COc1cc(NC(=O)NC(C)c2c(-n3cccc3)sc3c2CCCC3)cc(OC)c1OC (configuration not stated) | inactive: 72%

Compound | survival
Cc1ccccc1CN1CCC(CNc2ncnc3onc(-c4ccc(F)cc4)c23)CC1 | inactive: 129%
CCOC(=O)c1c(C)c(-c2ccccc2)n(CC(=O)Nc2cc(C)ccc2OC)c1C | inactive: 87%
CCc1cccc(-n2nnc(-c3nsc(NC(=O)c4cccs4)n3)c2C)c1 | active: -6%
CC(=O)Nc1ccc2nc(-c3cc(C)ccc3C)[nH]c2c1 | inactive: 143%
Cc1cc(N2CCC(C(N)=O)CC2)nc(-c2ccccc2)n1 | inactive: 101%
CCCCN(CC)CCNC(=O)c1cn(C)c(=O)c2c1c1ccccc1n2C | inactive: 82%
Cc1ccc(OCc2ccc(-c3nc(C#N)c(NCc4cccnc4)o3)o2)cc1 | inactive: 62%
COc1ccc(S(=O)(=O)NCC(c2ccco2)N2CCN(c3ccc(F)cc3)CC2)cc1C (configuration not stated) | inactive: 70%
COc1ccc(NC(=O)CCc2c(C)nc3nc(CNC(=O)OC(C)(C)C)nn3c2C)cc1OC | inactive: 98%
O=C(Nc1ccc(F)c(Cl)c1)C1CCCN(c2cnccn2)C1 (configuration not stated) | inactive: 86%
COc1ccc(CC2C(=O)Nc3ccc(Br)cc32)cc1OC (configuration not stated) | inactive: 75%
CCc1ccc(NC(=O)CC2C(=O)N(c3cccc(C)c3)C(=O)N2Cc2ccco2)cc1 (configuration not stated) | inactive: 128%
CCc1ccccc1NC(=O)N1CCN(C(=O)c2nsc3ccccc23)CC1 | active: -1%
CC(=O)N1CCCC1c1nc2ccccc2n1Cc1ccccc1C (configuration not stated) | inactive: 97%
CC1CCN(S(=O)(=O)c2ccc3c(ccn3CCC(=O)NCc3ccc(N(C)C)cc3)c2)CC1 | inactive: 78%
COc1cccc2cc(C(=O)NCCc3c(C)[nH]c4ccc(F)cc34)c(=O)oc12 | inactive: 83%
CCNc1nc(NC(C)(C)C)nc(Oc2ccc(=O)n(C)n2)n1 | inactive: 72%
CCS(=O)(=O)N1CCc2cc(C(=O)NCCc3ccc(OC)cc3)ccc21 | inactive: 116%
CC1CCN(S(=O)(=O)c2nnc(NC(=O)c3cccc(Br)c3)s2)CC1 | inactive: 33%
COc1cc(NC(=O)CC(C)n2nc(C)cc2C)cc(OC)c1 (configuration not stated) | inactive: 92%
O=C(NCCc1ccccc1)C(=O)NCC(c1ccc2c(c1)OCO2)N1CCOCC1 (configuration not stated) | inactive: 70%
